Experimental data reported in PubChem BioAssay AID686971 (National Center for Advancing Translational Sciences (NCATS), 2013).
About 7,500 (2.1%) of roughly 360,000 compounds were called active. The shares of active, inactive and inconclusive entries below differ from those in the screen. Calls come from the whole dose curve; as a rule, active = well fitted cell-killing curve with a large enough effect; inconclusive = small, poorly fitted or top-dose-only effect, or effect the other way, or another doubt; inactive = no such curve, though single readings can be large or run the other way. No potency is given beside an inconclusive call; the fits are too rough.

Assay: qHTS for induction of synthetic lethality in tumor cells producing 2HG: qHTS for the HT-1080-IDH1KD cell line;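 for activity, negative = toxicity: 0% = DMSO wells and -100% = cell-free medium wells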
Settings: HT-1080 IDH1 knockdown viability, ATP luminescence, 48 h; activity, negative = toxicity: at 46.1 µM (top of the series) unless noted
Procedure, shortened: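 In this qHTS, HT-1080 cells depleted of IDH1 are exposed for 48 h at 37 °C to compound titrations. Toxicity is scored from CellTiter-Glo luminescence, with DMSO as full viability and medium alone as none.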
Potency is the fitted concentration of half-maximal effect; tags give direction and shape of the fitted curve.

SMILES | Potency | activity, negative = toxicity
CCCCC1=CC2=CC(=O)C(C)(OC(=O)CC)C(=O)C2=CN1Cc1ccc2c(c1)OCO2 (stereo not drawn) | inactive | –
Cc1cc(=O)oc2cc(OCCc3ccccc3)ccc12 | inconclusive [cytotoxic, partial curve] | –
Cc1ccc(C(C)C)c(Oc2nnnn2-c2ccccc2)c1 | inconclusive [cytotoxic, single point] | –
NC(Cc1ccc(C(F)(F)F)cc1)c1csc(Nc2cc(Oc3ccccc3)ncn2)n1 (stereo not drawn) | inconclusive [cytotoxic, single point] | –
COc1ccc(NS(=O)(=O)c2ccc(NC(=O)c3ccc(N(C)S(C)(=O)=O)cc3)cc2)cc1 | inconclusive [cytotoxic, partial curve] | –
COc1ccccc1-c1noc(CCC(=O)NC2CCCCC2)n1 | inactive | –
CCOC(=O)[C@]12Cc3c(cc(OC)c(OC)c3OC)[C@H]1N(C1CCCCC1)C(=O)c1cc(OC)ccc12 | active: 11.6 µM | –
CSc1ccc(C(O)c2ncc(-c3cccc(OCc4ccccc4)c3)[nH]2)cc1 (stereo not drawn) | inconclusive [cytotoxic, single point] | –
O=C(COc1ccc(-c2ccccc2)cc1)NNC(=O)NC1CCCCC1 | inactive | –
C=CCNC(=O)c1ccc(-c2nc3ccccc3nc2-c2ccccc2)cc1 | inactive | –
Cc1cccc(C(=O)Oc2ccc(/C=N/NC(=O)c3cc(O)cc(O)c3)cc2)c1 | inconclusive [cytotoxic, partial curve] | –
CCc1ccc(OCCOCC(O)CN2CCN(Cc3ccc(Cl)cc3)CC2)cc1 (stereo not drawn) | inconclusive [cytotoxic, partial curve] | –
CN(C)C1CN(Cc2cn(Cc3cccc(Cl)c3)nn2)S(=O)(=O)C1 (stereo not drawn) | inactive | –
c1ccc(-n2nnnc2SCc2cccc3nsnc23)cc1 | inactive | –
Cc1ccc([N+](=O)[O-])cc1S(=O)(=O)N(C(=O)c1ccncc1)c1ccc2oc3c(c2c1)CCCC3 | – | inconclusive: -39.1% [cytotoxic]
Cc1c(C(=O)N(CCc2ccccc2)Cc2ccccc2)cccc1[N+](=O)[O-] | inconclusive [cytotoxic, single point] | –
Cc1ccc(-n2nc3c(n2)/C(=N/O)CC/C3=N\O)cc1 | inactive | –
CC(/C=N/NC(=O)c1ccncc1)=C\c1ccccc1 | inconclusive [rising, single point] | –
Cn1ccnc1C(=O)c1ccc(NN)c([N+](=O)[O-])c1 | inconclusive [cytotoxic, partial curve] | –
NC(Cc1ccc(Cl)cc1)c1csc(Nc2cc(Oc3ccccc3)ncn2)n1 (stereo not drawn) | active: 18.4 µM | –
OC(c1ccccc1)c1nc(-c2cc(F)cc(F)c2)cs1 (stereo not drawn) | inconclusive [cytotoxic, partial curve] | –
O=C(COc1ccc2ccccc2c1)NCCc1ccc2c(c1)OCCO2 | inactive | –
O=C(O)c1ccc(Cl)c(S(=O)(=O)N2CCCCCC2)c1 | inconclusive [rising, single point] | –
O=C(O)CC(c1ccccc1)N1C(=O)c2ccccc2C1=O (stereo not drawn) | inactive | –
Cn1c(N)c(C(=O)COC(=O)c2cc(-c3ccccc3)nc3ccccc23)c(=O)n(Cc2ccccc2)c1=O | inactive | –

SMILES | Potency | activity, negative = toxicity
Cc1ccc(-c2nn(-c3cc(N4CCNCC4)ccc3[N+](=O)[O-])c(=O)c3ccccc23)cc1 | inconclusive [cytotoxic, single point] | –
CCCCN(CCO)c1ncnc2sc(-c3ccccc3)cc12 | inconclusive [cytotoxic, partial curve] | –
O=C(Nc1cccc(Cl)c1)C1CCCN(S(=O)(=O)c2ccc(F)cc2)C1 (stereo not drawn) | inconclusive [cytotoxic, single point] | –
O=C(C#Cc1ccccc1)Nc1cccc(F)c1 | active: 3.66 µM | –
O=C(NCCCN1CCCC1)[C@H](CSCc1ccccc1)N1Cc2ccccc2C1=O | inconclusive [cytotoxic, single point] | –
O=C(N/N=C/c1c[nH]c2ccccc12)c1sc2ccccc2c1Cl | inconclusive [cytotoxic, partial curve] | –
COc1cccc(CN(C)CC2CCCN(CCc3ccc(Cl)cc3)C2)c1OC (stereo not drawn) | inconclusive [cytotoxic, single point] | –
O=C(c1nnsc1S(=O)c1ccc(Cl)cc1)N1CCOCC1 (stereo not drawn) | inconclusive [cytotoxic, single point] | –
C=CCC[C@@H](Cc1ccc(F)cc1)C(=O)OC[C@@H](Cc1c[nH]c2ccccc12)NC(=O)[C@@H](CC=C)CC(=O)N[C@H](CO)Cc1ccccc1 | inactive | –
O=C(C[C@@H]1C/C=C/CC[C@@H](Cc2ccc(F)cc2)C(=O)O[C@@H](c2ccccc2)CNC1=O)NCCO | inactive | –
Cc1[nH]nc2c1C1(C(=O)N(Cc3ccc(Cl)cc3)c3ccccc31)C(C#N)=C(N)O2 (stereo not drawn) | inconclusive [cytotoxic, single point] | –
O=[N+]([O-])c1ccccc1S(=O)c1ccccc1[N+](=O)[O-] | inconclusive [cytotoxic, single point] | –
CCOc1ccc(NC(=O)N(C2CCCCCC2)C2CCN(C(C)=O)CC2)cc1 | inactive | –
CCOC(=O)c1c(NC(=O)c2cccs2)sc2c1CCCC2 | inactive | –
OC(c1cccc(Cl)c1)c1nc(-c2ccoc2)cs1 (stereo not drawn) | inconclusive [cytotoxic, single point] | –
C(=N\Nc1nc2ccccc2[nH]1)/c1ccc2c(c1)OCCO2 | inconclusive [cytotoxic, single point] | –
Cc1ccc(NC(=O)C2CCN(S(=O)(=O)c3ccc4c(c3)CC(C)N4C(=O)C3CCC3)CC2)nc1 (stereo not drawn) | inconclusive [cytotoxic, single point] | –
Cc1ccccc1-c1cc2nc(NCc3ccccc3)n(C)c(=O)c2s1 | inactive | –
O=Cc1c[nH]c2ccc(NC(=O)OCc3ccccc3)cc12 | inactive | –
O=C(COc1ccc(Br)cc1Br)NC(=S)Nc1cccc(CO)c1 | – | inconclusive: 2.55% [cytotoxic]
Cc1cc(C(=O)N/N=C/c2c(C)nn(-c3ccccc3)c2C)c(C)o1 | inactive | –
O=C(CCCN1C(=O)C2CC=CCC2C1=O)Nc1ccccc1F (stereo not drawn) | inactive | –
CCN(CC)S(=O)(=O)c1ccc(C)c(NC(=S)N2CCN(Cc3ccc4c(c3)OCO4)CC2)c1 | active: 20.6 µM | –
O=C(Cc1cccc(NC(=O)C2CCCN(C(=O)C3CCC3)C2)c1)Nc1cccc(C(=O)N2CCOCC2)c1 (stereo not drawn) | inactive | –
Cc1cc(C)c2c(NC(=O)CCl)nn(C)c2n1 | inconclusive [cytotoxic, single point] | –

SMILES | Potency | activity, negative = toxicity
COc1ccc(CC2(C)OC(c3ccccc3)=NN2C(C)=O)cc1 (stereo not drawn) | inactive | –
N#Cc1cccc(NC(=O)c2cc(C3CCCCN3C(=O)c3cccs3)on2)c1 (stereo not drawn) | inactive | –
CCOC(=O)c1ccc(S(=O)(=O)N2CCN(CCC#N)CC2)cc1 | inactive | –
O=C(c1ccco1)N1CCCC(c2nc3c(nnn3Cc3c(Cl)cccc3Cl)c(=O)[nH]2)C1 (stereo not drawn) | inconclusive [cytotoxic, partial curve] | –
CN(C)CCCNC(=O)/C(=C\c1ccc(-c2ccc(Br)cc2)o1)NC(=O)c1ccccc1 | active: 23.1 µM | –
CC(C)(C)c1ccc(C(=O)N2[C@H](COCc3ccccc3)C=CS2(=O)=O)cc1 | inconclusive [cytotoxic, single point] | –
CCCCS/C(N)=N/N=C/c1cc(C)ccc1O | inconclusive [cytotoxic, partial curve] | –
CN(c1ccccc1)S(=O)(=O)c1cc(C(=O)c2nccn2C)ccc1Cl | – | inactive: 5.99% [at 9.24 µM]
CCOC(=O)Cc1csc(NC(=O)CCCCCN2C(=O)c3cccc4cccc(c34)C2=O)n1 | inconclusive [cytotoxic, single point] | –
CC(C)c1ccc(NC(=O)C2Cc3c(-c4ccccc4Oc4ccccc4)ccnc3O2)cc1 (stereo not drawn) | inconclusive [cytotoxic, partial curve] | –
COC(=O)c1ccc(CCc2cc(O)ccc2O)cc1 | inconclusive [cytotoxic, single point] | –
O=C(Nc1cccc(-c2ccc(N3CCOCC3)nn2)c1)c1ccc(Cl)cc1 | inactive | –
COc1ccc(/C=N/NC(=O)CCc2ccccc2)cc1O | inconclusive [cytotoxic, full curve] | –
N/C(Cc1ccc(Cl)cc1)=N\OC(=O)c1ccccc1 | inconclusive [cytotoxic, single point] | –
C#CCOCCOCCOCCNc1nc(N2CCOCC2)nc(N2CCN(C(=O)CCCCCCCCCCNC(=O)[C@@H](CCSC)n3cc(CCO)nn3)CC2)n1 | inactive | –
CCN(CC)c1ccc(C(=O)N/N=C/c2ccccc2OC(F)F)cc1 | inconclusive [cytotoxic, single point] | –
Cc1nn(-c2ccccc2)c(C)c1C(=O)Nc1nnc(-c2ccco2)o1 | inactive | –
Cc1cc(C)n(-c2nc3ccccc3nc2Nc2ccc3[nH]c(=O)[nH]c3c2)n1 | inconclusive [cytotoxic, single point] | –
Cc1nc(N=Nc2ccc(O)cc2)n[nH]1 | inconclusive [cytotoxic, partial curve] | –
CC(=O)c1cccc(NC(=O)N2C3CCC2CC(O)(c2cccnc2)C3)c1 (stereo not drawn) | inactive | –
N#Cc1ccc(-c2ccco2)nc1SCc1ccccc1 | inactive | –
O=C(NC1CCCCC1)N1CCCCCC1 | inactive | –
CC(C)c1ccc(CC(=O)N2CCC2(C)C(=O)Nc2cccc(C#N)c2)cc1 (stereo not drawn) | inactive | –
